Reference: the supplement of paper PMC10338343
± gives the standard deviation. The list shows a part of the results, in another mix than the full data.

Test system: MIWI (PIWIL1) piRISC loaded with piRNA #1 (30 nt)
Test: pre-steady-state target cleavage rate (min^-1); MIWI and MILI are mouse PIWI proteins and EfPiwi is from a freshwater sponge; tags in brackets are library labels; higher = faster piRNA-guided slicing of the target
Details: guide: piRNA #1 5'p-UGAGGUAGUAGGUUGUAUAGUAUCCAGAGG; auxiliary factor: 500 nM mouse GTSF1
Procedure, shortened: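 In HEPES–potassium acetate buffer at 33 °C, […] transcribed, DNA-blocked target RNA library was mixed with 1 nM active affinity-purified piRISC carrying one synthetic guide, with or without 500 nM GTSF1 partner protein, for 0–8 or 0–960 min. Uncleaved targets were sequenced and normalised to depth and to weakly complementary targets; three trials were pooled and k3 was capped at 0.0001 min^-1. The pre-steady-state cleavage rate followed from a burst-and-steady-state fit.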
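Note: 1 nM active piRISC with 0.1 nM target library at 33 °C single turnover.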

Row | Sequence | pre-steady-state target cleavage rate
1 | GGAGACCAUACUUUACAACCUACUAGCUCA | 0.285 ± 0.027
2 | GGAGUGGAUCUAUACAACCUACUACCUCA | 1.58 ± 0.1
3 | GGAGACCUAUCUAUACUACCUAGUACCUCA | 0.00962 ± 0.002
4 | CCACUGGAUACUAUAGAACCUACUACCUCA | 0.818 ± 0.055
5 | GGAGAGGAUACUAUACAACCUACUACUCA | 0.537 ± 0.047
6 | GGAGACGAUACUAUACAACCUACUAACCUCA | 1.19 ± 0.057
7 | GGACUCGUUACUAUACAACCUACUACCUCA | 1.42 ± 0.13
8 | CCGUCUGGAUACUAUACAACCUACUACCUCA | 1.86 ± 0.1
9 | GGAGACCUCACUAUACAACCUACUACCUCA | 1.73 ± 0.1
10 | GGAGACCUUACUAUACAACCUAGAACCUCA | 0.0844 ± 0.017
11 | GGAGAGGAUUCUAUACAACCUACUAGCUCA | 0.154 ± 0.024
12 | CCUCUGGAUACUAUACAACGUACUACCUCA | 1.01 ± 0.057
13 | GGAGACCAUACUAUACAACCACUACCUCA | 0.00781 ± 0.0028
14 | GGUCUCGGAUACUAUACAACCUACUACCUCA | 1.68 ± 0.1
15 | GGAGAGGAUACUAUACAACCUACUACCUCU [g2:g25:cont:t1U] | 0.897 ± 0.05
16 | GGAGACCUUACUUUACAACCUAGUACCUCA | 0.283 ± 0.038
17 | GGUCUGGAUACUAUUCAACCUACUACCUGA | 0.552 ± 0.1
18 | GGUCUGGAUACAAUACUACCUACUACCUCA | 1.09 ± 0.092
19 | GGAGAGCAUACUAUAGAACCUACUACCUCA | 0.877 ± 0.047
20 | CCUCUCGAUACUAUACAUCCUACUACCUCA | 1.97 ± 0.12
21 | GGAGACCAUACUAUUCAACCUACAACCUCA | 0.739 ± 0.077
22 | GGAGACCUAACUAUACUAACCUACUACCUCA | < 0.0001
23 | GGUCUGGAUACUUUACAACCUACUACCUCA | 1.76 ± 0.11
24 | GGAGACCUAUCUAUACAACAUACUACCUCA | 0.21 ± 0.029
25 | GGAGACCUAACUAUACAAGCUACUUCCUCA | 0.195 ± 0.026
26 | GGAGACCUUAGCUAUACAACCUACUACCUCA | 1.06 ± 0.096
27 | GCUCUGGAUAGUAUACAACCUACAACCUCA | 0.776 ± 0.05

Row | Sequence | pre-steady-state target cleavage rate
28 | GGACUGAAUACUAUACAACCUACUACCUCA | 1.67 ± 0.11
29 | GGUGUCGAUACUAUACAACCUACUACCUCA | 1.64 ± 0.1
30 | GGAGACCUUACUCUACAACCUACUACCUCA | 1.4 ± 0.088
31 | GGAGACCUUAGUAUACAACCAACUACCUCA | 0.011 ± 0.0029
32 | GGAGACCAUUACUAUACAACCUACUACCUCA | 1.59 ± 0.12
33 | GGAGUGGAUACUAUACAGCCUACUACCUCA | 0.633 ± 0.027
34 | GGAGACGAUAGUAUACAACCUAGUACCUCA | 0.397 ± 0.046
35 | GGAGUGGAAACUAUACUACCUACUACCUCA | 0.854 ± 0.065
36 | GGAGACGACACUAUACAACCUACUACCUCA | 1.72 ± 0.1
37 | GGAGUGGAUACGAUACAACCUACUACCUCA | 1.56 ± 0.08
38 | CCUCUGGAUUCUAUACAAGCUACUACCUCA | 1.23 ± 0.051
39 | CCUCUGGAUUCUAAACAACCUACUACCUCA | 0.844 ± 0.065
40 | CCUCACCAUACUAUACAACCUACUACCUCA | 2.03 ± 0.12
41 | GGAGUCCUUACUAUACAACCUACUACCUCA | 1.61 ± 0.12
42 | GGAGAGGUUACUAUACAACCUAGUACCUCA | 0.0202 ± 0.0062
43 | GGAGACCUAUGAUAUCAAGCAACUACCUCA | < 0.0001
44 | CCUCUGGAUAGUAUACAACCUACUACGUCA | 0.297 ± 0.036
45 | GGUCUGGAUACUAUACAUCCUACUAGCUCA | 0.31 ± 0.038
46 | GGAGACCUAACUAUACAACCUACAACCUCA | 0.378 ± 0.047
47 | GGAGACGACUACUAUACAACCUACUACCUCA | 1.5 ± 0.094
48 | GGAGAGGAUAGUAUACAACCUUCUACCUCA | 0.221 ± 0.018
49 | GGAGACCUUACUAUACAUCCUACUACCUCA | 1.19 ± 0.086
50 | GGAGACCUAUCUAUAGAACCUACAACCUCA | 0.012 ± 0.0032
51 | GGACUGGAUACAAUACAUCCUACUACCUCA | 1.15 ± 0.093
52 | GGAGACCUUACUAUACAACCUACUACCUUCA | 1.24 ± 0.086
53 | GGAGACCUAACUAUACAACCUGCUACCUCA | 0.447 ± 0.044
54 | GGAGACCUAUGUUAACAACCUACUACCUCA | 0.00404 ± 0.0029
